Results: the supplement of paper PMC10338343
± gives the standard deviation. In all, about 5,500 sequences were measured (“pre-steady-state target cleavage rate”: median about 0.1, highest 2% from about 0.64 on). The list shows a part of the results, in another mix than the full data.

Test system: MIWI (PIWIL1) piRISC loaded with piRNA #2 (30 nt)
Experiment: pre-steady-state target cleavage rate (min^-1); MIWI and MILI are mouse PIWI proteins and EfPiwi is from a freshwater sponge; tags in brackets are library labels; higher = faster piRNA-guided slicing of the target
Conditions: guide: piRNA #2 5'p-UUAGGUAACCCAGUAGAUCCAGAGGAAUUC; auxiliary factor: 500 nM mouse GTSF1
Method in brief: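 A transcribed, DNA-blocked target RNA library […] was incubated at 33 °C for 0–8 or 0–960 min with 1 nM active affinity-purified piRISC carrying one synthetic guide, in HEPES–potassium acetate buffer with or without 500 nM GTSF1 partner protein. Uncleaved targets were then sequenced and normalised to depth and to weakly complementary targets. Data from three trials were pooled, with k3 capped at 0.0001 min^-1, and a burst-and-steady-state fit yielded the pre-steady-state cleavage rate.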

Sequence	pre-steady-state target cleavage rate
CUUAUCCUCUCGAUCUACUGGGUUAGCUAA	0.34 ± 0.033
CUUUACCACUGGAUCUACUGGGUUACCUAA	0.442 ± 0.039
CUAUUCCACUGGAUCUACAGGGUUACCUAA	0.274 ± 0.032
CUUAUCCUCUGGAUCUACUGGGUUACCCAA	0.391 ± 0.13
CUUAAGGUCUGGAACUACUGGGUUACCUAA	0.161 ± 0.045
GAUUUCCUCUGGAUCUACUGGGUAACCUAA	0.101 ± 0.025
GAAUUCCUCUGGAUCUACCUGGGUUACCUAA	0.00478 ± 0.0045
CUUAUCCUGUGGAUCUAGUGGGUUACCUAA	0.176 ± 0.019
CUUAUCCUGUGGAUCUACUGGGAUACCUAA	0.214 ± 0.029
CAAUUCCUCUGGAUCUACUGGGUUACCUAA [g2:g29:cont:t1A]	0.494 ± 0.069
GAAUUCCUCUGGAUCUACUGGGUUUCGUAA	0.248 ± 0.044
CUAUUCCUCUGGAUCUACGGGUUACCUAA	0.062 ± 0.012
CAAUUCCUCUGCAUCUACUCGGUUACCUAA	0.0982 ± 0.015
CAAUUCCUCUGGAUCUACUCGCUUACCUAA	0.00431 ± 0.0041
CUUAUCCUCUGCAUCUUCUGGGUUACCUAA	0.194 ± 0.017
CUUAAGGAGAGCUACUACUGGGUUACCUAA	0.00344 ± 0.0021
CUUAACCUCUGGAUCUACUGGGUGACCUAA	0.145 ± 0.014
CAAUUCCUCUGGAUCUACUCGGUUACCAAA	0.0973 ± 0.039
CUUAAGGACUGGAUCUACUGGGUUACGAUA	0.0332 ± 0.027
CUAUUCCUCUGGAAUCUACUGGGUUACCUAA	0.387 ± 0.046

Sequence	pre-steady-state target cleavage rate
CUUAACCGUCUGGAUCUACUGGGUUACCUAA	0.271 ± 0.03
CUUAUCCUCUGGAUCUACAGGCUUACCUAA	0.028 ± 0.0083
CUUAAGCUCUGGAUCUACUGGGUGUACCUAA	0.0559 ± 0.012
CUAUUCCUCUGGAUCUAGUGGGUUACGUAA	0.211 ± 0.03
CUUAUCCUCUGGAUCUACUCGGUUACCUAA	0.0981 ± 0.018
GAAUUCCUCUGGAUCUACUGUGUUACCUAA	0.673 ± 0.06
CUUUUCGUCUGGAUCUACUGGGUUACCUUA	0.261 ± 0.042
CUUAAGGUCUGGAUCUACUCGGUUACCAAA	0.011 ± 0.0098
CAUUUCCUCUGGAUCUACUGGGUUACCUAA	0.541 ± 0.059
CUUAAGGUCUGGAUCUACUGGGAUUACCUAA	0.0268 ± 0.0077
CUAUUCGUGUGGAUCUACUGGGUUACCUAA	0.405 ± 0.033
CUUAUCCACUGGAUCAACUGGGUUACCUAA	0.414 ± 0.043
CUUAAGCUGUGGAUCAACUGGGUUACCUAA	0.142 ± 0.034
CUUAUCCUCUGGAUCUACUGCCUUACCUAA	0.086 ± 0.019
CUAUUGCUCUGGAUCUACUGGCUUACCUAA	0.062 ± 0.012
CUUAUCCUCUGGAUCUACUGGGUUUCCUUA	0.252 ± 0.071
CUUAACCUGUGCAUCUACUGGGUUACCUAA	0.236 ± 0.022
CUUAUCCUUGGAUCUACUGGGUUACCUAA	0.42 ± 0.029
CUUAACCUCUGGAUCUACUGGGUUACGUAA	0.509 ± 0.031
